According to PubChem BioAssay AID686970 (National Center for Advancing Translational Sciences (NCATS), 2013):
The campaign covered roughly 360,000 compounds. About 6,000 (1.7%) were called active. This list was built around the results that the source calls inconclusive (neither active nor inactive); the mix of calls is not that of the screen. Calls follow the shape of the dose curve; as a rule, active = well fitted cell-killing curve with a large enough effect; inconclusive = small, poorly fitted or top-dose-only effect, or effect the other way; inactive = flat fitted curve, though single readings scatter. Potencies of inconclusive entries are left out as doubtful fits.
Potency is read from the fitted curve at half-maximal effect; tags tell the direction and shape of the fitted curve.

Assay: qHTS for induction of synthetic lethality in tumor cells producing 2HG: qHTS for the HT-1080-NT fibrosarcoma cell line;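 also: NT is the 2HG producing partner of a matched IDH1 knockdown line; nearly all actives have a fitted effect of over 55% in size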;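 as to activity, negative = less viability: 0% = DMSO-treated cells and -100% = media-only wells without cells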
Details: HT-1080-NT fibrosarcoma viability, CellTiter-Glo ATP luminescence, 48 h; activity, negative = less viability: at 46.1 µM (top of the series) unless noted
Procedure, shortened: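 HT-1080-NT fibrosarcoma cells (2HG-overproducing), 750 cells/well in RPMI with 5% FBS, dosed after 2 h and incubated 48 h at 37C. CellTiter-Glo luminescence normalized to DMSO and no-cell wells; concentration-response curves fitted and classed.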
In the case of `COc1ccc2nc(C)cc(Nc3ccc(N4CCOCC4)cc3)c2c1`, the Potency was inconclusive [cytotoxic, single point].
For `Cc1nc(Nc2ccccc2)sc1-c1ccccc1`, the Potency was inconclusive [cytotoxic, single point].
In the case of `CCCCOc1cccc(-c2cc(C(=O)NNC(=S)NCC)c3ccccc3n2)c1`, the Potency was inconclusive [cytotoxic, single point].
With `O=C(CSc1n[nH]c(=O)n1-c1cccnc1)N1CCOCC1` the Potency was inconclusive [cytotoxic, full curve, poor fit].
For `O=C(Nc1ccc(Br)cn1)c1cccc(-c2cc3ccccc3oc2=O)c1`, the Potency was inconclusive [cytotoxic, single point].
In the case of `CCC(C)NC(=O)Nc1ccc(Br)cc1` (stereo not drawn), the Potency was “inactive”.
With `COc1ccc(OC)c(N(CCN2C(=O)c3ccccc3C2=O)C(=O)CCl)c1` the Potency was inconclusive [cytotoxic, partial curve, poor fit].
For `Cc1cc(NC(=O)c2ccc(C#N)cc2)n(-c2ccccn2)n1`, the Potency was “inactive”.
For `COc1cc2ccccc2cc1C(=O)N(CCN(C)C)c1nc2ccc(C)cc2s1`, the Potency was active: 23.1 µM.
With `O=S1(=O)N[C@H](c2ccccc2)C[C@H](c2ccc(C(F)(F)F)cc2)O1` the Potency was “inactive”.
In the case of `CC(=O)Nc1cccc(-c2nc3ccccc3[nH]2)c1`, the Potency was “inactive”.
In the case of `COc1ccc(C)cc1NC(=S)NNC(=O)c1ccccc1Cl`, the Potency was inconclusive [cytotoxic, full curve].
With `Cc1cccc(NC(=O)C2CCN(S(=O)(=O)c3ccc4c(c3)OCCO4)CC2)n1` the Potency was inconclusive [cytotoxic, single point].
For `CCOc1cc(NC(=S)NCC(C)C)c(OCC)cc1NC(=O)c1cccs1`, the Potency was inconclusive [cytotoxic, single point].
In the case of `CC1CCCC(C)N1CCCNC(=O)c1cc2c(s1)-c1ccccc1OC2` (stereo not drawn), the Potency was inconclusive [cytotoxic, single point].
In the case of `O=C(O)c1ccc(CSc2nc(-c3ccc(Cl)cc3)cc(C(F)(F)F)n2)cc1`, the Potency was inconclusive [cytotoxic, single point].
For `Clc1ccc(/C=C/c2nc3ccccc3[nH]2)c(Cl)c1`, the Potency was active: 14.6 µM.
In the case of `COC(=O)c1ccc(Nc2nc(C)nc3c2nnn3Cc2ccccc2)cc1`, the Potency was “inactive”.
In the case of `O=C(CC1Sc2ccccc2NC1=O)NNc1ccc(F)cc1` (stereo not drawn), the Potency was inconclusive [cytotoxic, full curve].
With `CCOC(=O)C1CCCN(CCC(C)c2ccccc2)C1` (stereo not drawn) the activity, negative = less viability was inconclusive: 30.5%.
In the case of `COc1ccc(-c2ccc(N(C)C)cc2)cc1[C@H]1[C@@H]2C=CCC[C@@]2(C)C(=O)N1Cc1ccccc1`, the activity, negative = less viability was inconclusive: -31.9% [cytotoxic].
In the case of `O=C(CSc1nc2ccccc2c(=O)n1CCCN1CCOCC1)Nc1cccc(S(=O)(=O)N2CCCCCC2)c1`, the Potency was inconclusive [cytotoxic, partial curve].
In the case of `COc1cc2c(cc1N)-c1ccc(N)cc1C2`, the activity, negative = less viability was inconclusive: 30.8%.
In the case of `CC1CCN(CC(O)CN2c3ccccc3Sc3ccccc32)CC1` (stereo not drawn), the Potency was “inactive”.
In the case of `CC(=O)c1cccc(NC(=O)COC(=O)c2ccccn2)c1`, the Potency was inconclusive [rising, partial curve].
With `CC(C)(C)Cc1c(-c2ccc(Br)cc2)nc2ccc(Cl)cn12` the Potency was inconclusive [cytotoxic, single point].
In the case of `Cc1ccccc1CC1(CO)CCCN(Cc2nc(-c3cccs3)oc2C)C1` (stereo not drawn), the Potency was inconclusive [cytotoxic, single point].
With `CCOC(=O)NC1(NCC(C)C)Oc2ccccc2O1` the Potency was inconclusive [cytotoxic, partial curve].
For `COc1cc(C(=O)OC2CSCC2NC(=O)c2ccccc2)cc(OC)c1OC` (stereo not drawn), the Potency was “inactive”.
For `COc1ccc(Nc2nc(-c3cccs3)nc3ccccc23)cc1`, the Potency was inconclusive [cytotoxic, single point].
In the case of `CCCCNS(=O)(=O)c1ccc(S(=O)(=O)NCc2ccncc2)cc1`, the Potency was inconclusive [cytotoxic, single point].
For `COc1cc(C(=O)Nc2cc(-c3ccccc3)[nH]n2)cc(OC)c1OC`, the Potency was inconclusive [cytotoxic, single point].
In the case of `O=C(c1ccc(Cl)c(S(=O)(=O)N2CCCC2)c1)N1CCOCC1`, the Potency was inconclusive [rising, partial curve].
With `COc1ccc(-n2nnnc2-c2nc3ccccc3s2)cc1` the Potency was inconclusive [cytotoxic, single point].
For `COCCNC(=S)N1CCN(c2nc(-c3ccc(Cl)cc3)cs2)CC1`, the Potency was inconclusive [cytotoxic, single point].
For `Cc1ccc(C(=O)N/C(=C\c2ccc(-c3ccc(Cl)cc3)o2)C(=O)NCCCN(C)C)cc1`, the Potency was active: 29.1 µM.
With `Cc1ccc(NC(=S)NCc2cccn2C)cc1` the Potency was inconclusive [cytotoxic, single point].
For `CC(C)c1cccc(C(C)C)c1NC(=S)Nc1cccc(Cl)c1`, the Potency was “inactive”.
In the case of `CCN(CC)C(=O)Cn1nc(C)c2ccccc2c1=O`, the Potency was “inactive”.
In the case of `O=C(Cc1ccc(Cl)cc1)Nc1ccc(-c2cc3ccccc3oc2=O)c(Cl)c1`, the Potency was active: 6.51 µM.
For `CC(=O)Nc1cccc(Nc2nc(-c3cccs3)nc3ccccc23)c1`, the Potency was inconclusive [cytotoxic, single point].
For `CN(C(=O)c1ccc(Oc2ccc([N+](=O)[O-])cc2)cc1)C1CCCCC1`, the Potency was inconclusive [cytotoxic, single point].
For `Cc1ccc(S(=O)(=O)N2CCOCC2)cc1NC(=O)CSCc1c(C)noc1C`, the Potency was “inactive”.
For `O=S(=O)(c1ccc(F)cc1)c1snnc1-c1ccccc1`, the Potency was active: 6.51 µM.
In the case of `O=S(=O)(NCC1(N2CCOCC2)CCCCC1)c1ccc(Cl)cc1C(F)(F)F`, the Potency was “inactive”.
With `CCC(C)C(=O)Nc1nc(C)c(-c2csc(Nc3cc(Cl)ccc3OC)n2)s1` (stereo not drawn) the Potency was “inactive”.
In the case of `COc1ccc(C(=O)NCC(=O)NCC2(N(C)C)CCCCC2)cc1OC`, the Potency was “inactive”.
For `COC(=O)[C@@H]1[C@@H](C#N)C2(c3ccccc3-c3ccccc32)N(c2ccc(Cl)cc2)N1C#N`, the Potency was active: 23.1 µM.
In the case of `C[C@@H]1CC[C@]2(C(=O)O)CC[C@]3(C)C(=CCC4[C@]56CC[C@@](O)(OC5)C(C)(C)C6CC[C@]43C)C2[C@H]1C` (stereo partly drawn), the Potency was inconclusive [cytotoxic, partial curve].
In the case of `O=C(NC1CCCC1)c1cc(COc2ccc3ncccc3c2)on1`, the Potency was inconclusive [cytotoxic, single point].
In the case of `O=C(Nc1cccc(-c2cccc(Cl)c2)c1)C1CCN(Cc2ccc(CO)o2)CC1`, the Potency was active: 16.4 µM.
In the case of `CCOCCCNC(=S)N1CCN(c2nc(-c3ccccc3)cs2)CC1`, the Potency was inconclusive [cytotoxic, single point].
With `Cc1cc(OC(C)C(=O)N2C[C@H]3C[C@@H](C2)c2cccc(=O)n2C3)c2c(C)c(C)c(=O)oc2c1` (stereo partly drawn) the Potency was “inactive”.
In the case of `C/C(=N\NC(=O)c1ccc(CN2CCc3ccccc3C2)cc1)c1ccccc1O`, the Potency was inconclusive [cytotoxic, partial curve].
For `O=C(CSc1ncc(S(=O)(=O)c2ccccc2)c(=O)[nH]1)Nc1ccccc1Cl`, the Potency was inconclusive [rising, single point].
For `CCN1C=C(Cc2ccccc2C)C2=C(C1)C(c1ccccc1C)C(C#N)=C(N)O2` (stereo not drawn), the Potency was inconclusive [cytotoxic, single point].
With `CC(=O)Nc1ccc(S(=O)(=O)N/N=C/c2ccc(C)s2)cc1` the Potency was “inactive”.
With `CCCn1nnc(NC(=S)NC(=O)/C=C/c2ccc(Cl)cc2)n1` the Potency was “inactive”.
With `CC(C)c1[nH]nc2c1C(c1cccs1)C(C#N)=C(N)O2` (stereo not drawn) the Potency was inconclusive [cytotoxic, partial curve].
For `CCCS(=O)(=O)NC(=O)C1(C)CCN(C(=O)c2c(C)noc2C)C1` (stereo not drawn), the Potency was “inactive”.
With `CC1CCCCN1S(=O)(=O)c1cnc(Cl)c(Br)c1` (stereo not drawn) the Potency was “inactive”.
In the case of `Cn1c(CN2CCOCC2)nc2cc(NC(=O)c3ccccc3Cl)ccc21`, the Potency was “inactive”.
In the case of `Cc1ccc(C2=NN(C(=O)CCl)C(c3cccs3)C2)o1` (stereo not drawn), the Potency was active: 4.61 µM.
For `Cc1ccccc1-n1c(C)nnc1SCC(=O)N1CCc2ccccc2C1`, the Potency was “inactive”.
For `CCOC(=O)N1CC=C2C(C#N)=C(N)C(C#N)(C#N)[C@H](c3cccs3)C2C1` (stereo partly drawn), the Potency was inconclusive [cytotoxic, single point].
With `CCOc1ccc(NC(=O)CNC(=O)c2nn(-c3ccc(OC)cc3)c(=O)c3ccccc23)cc1` the Potency was “inactive”.
In the case of `O=C(Nc1nc2cc3c(cc2s1)OCCO3)c1cccs1`, the Potency was inconclusive [cytotoxic, partial curve].
In the case of `CCC(=O)c1ccc(OCC(O)CN2CCN(C(c3ccccc3)c3ccccc3)CC2)cc1` (stereo not drawn), the Potency was inconclusive [cytotoxic, single point].
In the case of `Cc1cc([N+](=O)[O-])nn1Cc1ccc(C(=O)N/N=C/c2ccc(O)cc2O)cc1`, the Potency was inconclusive [cytotoxic, full curve].
In the case of `CCCC1=NN(C(=O)C(=O)Nc2ccc(Br)cc2)C(O)(C(F)(F)F)C1` (stereo not drawn), the Potency was active: 13 µM.
For `CC1CCCC(NC(=O)COC(=O)c2ccc(N(C)C)cc2)C1C` (stereo not drawn), the Potency was “inactive”.
With `Cc1ccc(C)c(CN2C(=O)c3ccccc3S(=O)c3ccc(C(=O)NCCCN4CCCC4)cc32)c1` (stereo not drawn) the Potency was inconclusive [cytotoxic, partial curve].
In the case of `Cc1c(CN(C)Cc2cn(C)nc2-c2ccccc2F)[nH]c2ccccc12`, the Potency was inconclusive [cytotoxic, single point].
